# Assay results published in article PMC4336329 (PLoS ONE, 2015).
# The campaign covered roughly 310,000 compounds. About 2,200 (0.71%) showed an effect of 50% or more. The effect is printed as a negative number. This is one part of the list.
# Target: human ether-à-go-go-related gene (hERG) potassium channel (human, UniProt Q12809)
# Test: primary screen, population patch clamp on CHO cells stably expressing hERG
# Sequence of human ether-à-go-go-related gene (hERG) potassium channel (Q12809 whole entry, looked up): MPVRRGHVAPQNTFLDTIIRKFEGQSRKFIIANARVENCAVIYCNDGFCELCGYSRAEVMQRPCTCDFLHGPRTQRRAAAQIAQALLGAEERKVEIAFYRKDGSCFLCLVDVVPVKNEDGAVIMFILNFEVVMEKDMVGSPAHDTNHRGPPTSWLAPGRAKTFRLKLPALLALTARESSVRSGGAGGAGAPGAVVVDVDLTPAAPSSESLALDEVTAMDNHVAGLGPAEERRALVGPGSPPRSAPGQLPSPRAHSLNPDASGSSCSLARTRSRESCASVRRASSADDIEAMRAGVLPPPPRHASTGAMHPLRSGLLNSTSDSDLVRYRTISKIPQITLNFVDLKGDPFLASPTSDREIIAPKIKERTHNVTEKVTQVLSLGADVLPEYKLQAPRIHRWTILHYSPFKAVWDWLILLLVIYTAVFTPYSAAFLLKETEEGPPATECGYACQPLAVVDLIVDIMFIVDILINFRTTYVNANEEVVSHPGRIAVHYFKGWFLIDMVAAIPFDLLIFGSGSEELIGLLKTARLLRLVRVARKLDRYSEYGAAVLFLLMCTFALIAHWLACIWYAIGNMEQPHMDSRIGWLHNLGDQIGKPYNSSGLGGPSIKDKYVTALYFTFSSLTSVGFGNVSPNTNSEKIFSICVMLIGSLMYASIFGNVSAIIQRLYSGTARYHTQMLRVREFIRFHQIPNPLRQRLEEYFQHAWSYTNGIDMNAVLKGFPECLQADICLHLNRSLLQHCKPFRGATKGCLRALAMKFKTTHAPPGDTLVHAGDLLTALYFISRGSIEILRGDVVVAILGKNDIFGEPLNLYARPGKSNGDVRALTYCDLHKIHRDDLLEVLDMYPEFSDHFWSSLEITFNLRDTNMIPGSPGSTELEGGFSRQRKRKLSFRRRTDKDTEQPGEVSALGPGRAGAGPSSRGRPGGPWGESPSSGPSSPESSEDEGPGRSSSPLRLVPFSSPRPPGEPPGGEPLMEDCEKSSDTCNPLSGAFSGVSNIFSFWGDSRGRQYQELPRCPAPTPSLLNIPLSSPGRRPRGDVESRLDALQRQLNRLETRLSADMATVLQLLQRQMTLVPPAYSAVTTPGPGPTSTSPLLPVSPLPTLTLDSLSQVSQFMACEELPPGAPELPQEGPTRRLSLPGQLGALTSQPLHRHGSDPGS
row,SMILES,"hERG current change (%, negative = inhibition) at 1uM [%]"
1,Cc1ccccc1NC(=O)COc1ccc(Br)cc1CNCCCO.Cl,3.07
2,CCCCNC(=O)CC(NS(=O)(=O)c1ccc(C)cc1)c1ccco1 (stereo not drawn),13.7
3,Cc1ccc(O)c(C(=O)c2cc(C#N)c3nc4ccccc4n3c2)c1,16.4
4,Cc1ccc(NC(=O)Cc2c(O)c3ccccc3[nH]c2=O)c(C)c1,8.78
5,CN(C)C(=O)NCc1ccc(S(N)(=O)=O)cc1,10.8
6,CC1=C(C)C(=O)N(C(C)CCc2ccccc2)C1=O (stereo not drawn),12.7
7,O=[N+]([O-])c1cccc(Cl)c1N1CCOCC1,9.17
8,Cc1ccccc1CCN(CC(=O)NCc1ccc(F)cc1)C(=O)c1csnn1,1.7
9,COc1ccc(CN2CCCC(C(=O)c3cccc(OC(C)C)c3)C2)cc1Cn1cccn1 (stereo not drawn),-3.41
10,COc1ccccc1N1CCN(C(=O)CSc2ncccc2-c2nc3ccccc3[nH]2)CC1,-9.23
11,O=P(CO)(Cc1ccccc1)Cc1ccccc1,2.15
12,Cc1ccc(C)c(NC(=O)C2Cc3ccccc3CN2C(=O)OCc2ccccc2)c1 (stereo not drawn),9.48
13,Nc1ccncc1Cl,10
14,O=C(NCCN1CCOCC1)C1CCN(c2ncnc3c2sc2cccc(F)c23)CC1,6.28
15,O=C(CSc1nnc(-c2ccc(Br)cc2)o1)Nc1cccc(C(=O)O)c1,1.64
16,CC(=O)Nc1ccc(S(=O)(=O)N2CCN(c3ccc(C)c(Cl)c3)CC2)cc1,10.4
17,CC1=CC(c2ccccc2)n2nc(NC(=O)CCC(=O)O)nc2N1 (stereo not drawn),2.01
18,Cc1ccc(NC(=O)C2CCCN(C(=O)Nc3ccc(F)cc3)C2)cc1 (stereo not drawn),13.4
19,CC(=O)Oc1ccc2c(C)c(CC(C)O)c(=O)oc2c1 (stereo not drawn),11.5

row,SMILES,"hERG current change (%, negative = inhibition) at 1uM [%]"
1,CCOC1(c2ccccc2)CC1C(=O)N/N=C/c1cccc([N+](=O)[O-])c1 (stereo not drawn),12.2
2,CCN(CC(=O)Nc1c(F)cccc1F)C(=O)c1ccc(N2C(=O)c3ccccc3C2=O)cc1,-0.192
3,Cc1nc(NC(=O)CSc2nnc(C3CC3)n2C)sc1C,15.7
4,CC1N(C(=O)N2CCOCC2)CCN1S(=O)(=O)c1ccc(Cl)cc1 (stereo not drawn),4
5,CC[N+]1=C(C)C(C)(C)c2cc(C)ccc21.[I-],3.91
6,Cc1c(C(=O)OCc2ccccc2)[nH]c2c1C(=O)CC(c1ccco1)C2 (stereo not drawn),6.02
7,FC(F)(F)c1nc2ccccc2n1CCNc1nc(CN2CCCCC2)cs1,16.8
8,O=C(Cn1[nH]c(=O)c2ccccc2c1=O)N1CC=C(c2ccccc2)CC1,9.29
9,CC(C)c1ccc(NC(=O)CN2C(=O)NC(C)(C3CC3)C2=O)cc1 (stereo not drawn),9.24
10,COc1ccc2[nH]c(C(=O)Nc3cccc(C)n3)cc2c1,-9.72
11,COc1ccc(C(O)c2coc3ccc(O)c(CN(C)C)c23)cc1 (stereo not drawn),-7.41
12,COc1ccc2c(c1)C(=O)OC2CC(=O)O (stereo not drawn),13.1
13,COc1ccccc1C1/C(=C(/O)c2ccccc2)C(=O)C(=O)N1CC(C)C (stereo not drawn),10.7
14,COCc1cc(=O)[nH]c(/N=C(\N)Nc2ccc(Cl)c(Cl)c2)n1,13.9
15,Cc1cc(C)n2nc(CNS(=O)(=O)c3c(F)c(F)c(F)c(F)c3F)nc2n1,16.6
16,CCOc1ccc(-n2cc(C(=O)NC(C)C)c3cc(OC)c(OC)cc3c2=O)cc1,9.58
17,Cc1noc(C)c1C(=O)Nc1ccc(F)cc1F,-1.94
18,C=CCNC(=O)COC(=O)C1CCN(S(=O)(=O)c2ccc3c(c2)OCCO3)CC1,5.05
19,O=c1[nH]c2ccccc2nc1-c1ccccc1,9.81

row,SMILES,"hERG current change (%, negative = inhibition) at 1uM [%]"
1,Cc1nnc(SCC(=O)NC(=O)Nc2ccc3c(c2)OCCO3)n1N,7.63
2,Cc1cc(C)c(S(=O)(=O)N2CCN(c3ccc([N+](=O)[O-])c(-n4nc(C)cc4C)c3)CC2)c(C)c1,0.425
3,CC1CCC(NS(=O)(=O)c2cccc3nsnc23)CC1 (stereo not drawn),10.5
4,Cc1nn2c(-c3ccco3)nnc2c2ccccc12,2.18
5,CC(=O)c1cccc(CN2CCN(CCc3ccccc3)C(CCO)C2)c1 (stereo not drawn),-16.4
6,CCOC(=O)CSc1nc2cc3c(cc2cc1CC)OCCO3,7.19
7,Cl.O=C1CC(=C(c2ccccc2)c2ccccc2)C(=O)N1CCCCN1CCN(c2cccc(Cl)c2)CC1,0.674
8,CC(=O)OC1C2CCC1C([NH+]1CCCC1)CC2.[Cl-] (stereo not drawn),10.6
9,CCOc1ccc(CNC(=O)Cn2ccc3cc(S(=O)(=O)N4CCCC4)ccc32)cc1,14.8
10,C=CCc1cccc(/C=N/c2nc3ccccc3n2CC)c1O,7.15
11,Cc1nn2c(NCc3ccccn3)cc(C(C)(C)C)nc2c1-c1ccccc1,8.2
12,COC(=O)c1ccc(/C=N/OCC(=O)NCc2ccc(F)cc2)cc1,3.32
13,CN(C)c1nc(NCc2ccccc2)nc(SCC(N)=O)n1,9.4
14,COc1ccc(C2=NS(=O)(=O)N(C)C(C(=O)Nc3cc(OC)c(OC)c(OC)c3)=C2)cc1,6.75
15,O=C(Nc1ccccc1N1CCOCC1)c1ccc2ccccc2c1,-2.57
16,Cc1ccccc1N1C(=O)NC(=O)/C(=C\c2cc(C)n(C)c2C)C1=O,10.7
17,Cn1c(SCC(=O)Nc2sccc2C#N)nnc1-c1ccccc1,12
18,CCOc1ccc(S(=O)(=O)N(C)c2ccc(OCC(=O)NCc3cccnc3)cc2)cc1,8.84
19,CC1CCCN(C(=O)c2ccc(CNc3c(N4CCCCC4)c(=O)c3=O)cc2)C1 (stereo not drawn),7.1
